Results reported in the supplement of paper PMC5499739.
The full ranking holds about 16,000 sequences; the median of “Z-score” is about -0.37, and the highest 2% start at about 3.2. This is one part of the list.

Each sequence was assayed on RBM10 RRM1-ZnF (GST-tagged construct) (assay: RNAcompete 7-mer binding Z-score; higher = stronger binding preference).
Procedure: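 RNAcompete: 20 pmol GST-tagged RBM10 RNA-binding constructs were incubated with a designed RNA pool of about 241,000 sequences up to 41 nt (1.5 nmol) on glutathione beads for 30 min at 4 °C and washed. Bound RNAs were identified by microarray hybridisation. Each RNA 7-mer is scored by a one-sided Z-score of its enrichment, computed over probes that contain the 7-mer within longer pool sequences.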

Sequence	RNAcompete 7-mer binding Z-score
CCAACCU	-0.785
UUUGGGU	2.47
GGUCCAG	0.0398
GUCAAGG	1.6
CAGACCG	-0.392
UUUCACG	-0.766
GUACUCU	-0.6
GUUUGAC	-0.292
AACUUUU	-0.798
GUCUCCA	-0.714
ACAGCUG	-0.256
CUUUGCG	-0.821
UGCAAGC	-0.62
CAUGAGG	1.03
UAACUCG	-0.665
CUGCUGA	-0.379
CAACGGA	0.563
ACACACG	-0.256
ACCGACU	-0.766
GACAUGA	0.235
UGCCCCU	-0.22
AGUAGGC	0.975
CCACGGC	-0.474
UAGAUUC	-0.379
UAAACCC	-0.714

Sequence	RNAcompete 7-mer binding Z-score
UCGGGCC	-0.376
AGAUCGA	-0.344
GUGUUAC	-0.308
GCUGGCC	-0.308
GAACAGA	0.439
AGAGCAU	-0.366
GCCUGUU	-0.724
UCCUAAU	-0.711
UAGAUGG	2.26
UCAGGGA	2.02
AAAUAUG	-0.0577
AUUUGAC	-0.626
AUCGUUU	-0.626
UAGUCUC	-0.733
AUGGCUA	0.43
UGAACCU	-0.604
GCGGUGG	2.85
AACGCCA	-0.552
AAUUAAU	-0.422
UCGUUUC	-0.737
CCGCCGG	-0.35
UUUGAGC	-0.503
CCGACAG	-0.522
UCAGGGG	1.81
AACCCAG	-0.34

Sequence	RNAcompete 7-mer binding Z-score
GUGCACU	-0.00896
AGUUUCC	-0.733
GCGAAAC	-0.123
UUUCCCG	-0.854
UCGGCCG	-0.636
CUAAGAA	-0.331
CUAUGAA	-0.441
CGCAUUU	-0.876
CCCGAGU	-0.412
AUGGUAA	2.2
CUUGCUA	-0.87
CCGAUCA	-0.707
AUUAAAG	0.186
CUCUGUU	-0.808
UGCAUUC	-0.594
CAUCCCC	-0.626
AUAAUUA	-0.506
GCAGAUG	1.24
ACUUUUC	-0.88
UCGAGCA	-0.324
CAAGGAU	1.36
GGCAUAA	0.157
AACAGAC	-0.116
CAAAGUA	-0.223
GGCUAAA	0.586

Sequence	RNAcompete 7-mer binding Z-score
GCUUUGG	0.0333
UGCAGUA	-0.103
UUGAUCU	-0.665
GGUCCGU	0.157
CGCCUAC	-0.646
GCUUGGA	0.316
AGUGGCA	1.18
GAUGUCC	-0.513
GGUAAUA	1.23
GAGUACA	0.215
UAGAUCU	-0.607
GGCACUA	0.335
UACAGUA	-0.0544
GAUCCGA	-0.698
GUUUGCG	0.228
GCUUUUU	-0.837
CUAGAAA	-0.409
CGUAUAC	-0.477
ACCGCGU	-0.727
UCCAAUA	-0.642
ACAAAGC	-0.529
CCUAAAA	-0.763
UGCCCGG	-0.191
GCUAAAG	-0.0479
AUUAUAC	-0.688

Sequence	RNAcompete 7-mer binding Z-score
AUAGGGU	3.61
UAUUCUA	-0.743
CUGCUGG	-0.236
UAGUUUA	-0.389
GAAACCC	-0.568
AAAUGGC	1.05
UUUCAGC	-0.675
CAUAUAC	-0.655
GAUAUGG	3.3
AGCGAUG	0.995
GUAAGAU	0.504
UCAAGCC	-0.818
AGAUCAU	-0.646
CAGGUCG	0.475
GUUGAAA	0.439
ACUCCAG	-0.574
GCAGUCC	-0.623
CACCGAU	-0.519
UUGAGAG	0.664
GUUCCUU	-0.639
AAUAUAU	-0.405
GUUCUCU	-0.707
UUGGCCC	-0.376
GGGGCAU	2.54
CGUAGGG	1.94

Sequence	RNAcompete 7-mer binding Z-score
UACCUAU	-0.629
AUGGGGA	4.27
AUCGGUC	-0.448
GGGUGCA	2.74
UCGGAAU	0.137
UGCCCGU	-0.448
CCUACUU	-0.889
GGCGGCA	1.05
CGGUGCA	0.205
AGAUGGC	0.374
CUUGGAC	-0.444
AUGCGUA	-0.23
GAGGACA	1.5
GCGCAAG	0.0593
UAUCCAC	-0.503
GUUUAAA	-0.389
UUUGGUC	-0.353
GGCAAAU	0.465
UUGUUUC	-0.642
CAGUGAU	-0.246
CUGAUGU	-0.152
GUGGACA	1.74
CUGGCGG	0.508
AGCUUGC	-0.681
UACCAGU	-0.568

Sequence	RNAcompete 7-mer binding Z-score
AGAUAGG	2.44
UCAGGAC	-0.129
UACCAAC	-0.668
UGCGGGA	1.87
AGGUGAU	1.8
GAAAGUA	0.709
GCGGCCC	-0.256
UGAAGUC	-0.301
GAGUAUU	-0.178
GCGCUGU	-0.0772
UUUGUUU	-0.282
CAGUACA	-0.249
CUCCGGG	0.42
GUGGAGU	2.67
GAACUCA	-0.548
AUAUACA	-0.6
CCUAUGA	-0.772
UCCUCGC	-0.779
GAAAAAA	0.163
UCACCUC	-0.75
UGGUGUU	1.22
GCAAUAA	-0.249
GCUCGUA	-0.431
CCUAACU	-0.753
ACACAAA	-0.493

Sequence	RNAcompete 7-mer binding Z-score
CUUUGUU	-0.85
AUGACUU	-0.72
GGUGGCG	2.74
AAGCGCA	-0.152
UGACUAC	-0.373
CGCCGUU	-0.704
AAGACAC	-0.389
UGGUCUG	0.475
CAUAACU	-0.548
CUCGUCU	-0.798
UGUGUAA	0.303
UUGAAAU	-0.412
CGUAAUA	-0.561
AGUUUCA	-0.681
UGAAUGC	-0.318
UAUCACG	-0.324
CUUUGGA	-0.383
GGAAACA	1.51
CUAUCCU	-0.841
GGAGCAA	1.71
GUUAUAU	-0.236
CCUGCCU	-0.506
GUGAAGA	1.09
UCAUCCA	-0.795
CAAUCAG	-0.175

Sequence	RNAcompete 7-mer binding Z-score
CGGAUGA	1.15
ACCUUAU	-0.945
CCGGCUU	-0.876
CGAUCAC	-0.587
UGAAUCU	-0.457
UAAUUGU	-0.571
ACGAUUG	0.0495
UGUGCUU	-0.678
CGUAGAA	0.189
CCGGCUG	-0.21
GCAACUG	-0.171
GCGUAAC	-0.0674
ACGUAGC	-0.269
AUUACAA	-0.331
GAUAUCC	-0.636
AUUCCUG	-0.818
UGUAGCC	-0.448
CAUGCUC	-0.655
UGUCUCC	-0.548
GAAAAGC	0.309
CCAAAAC	-0.863
GUGCUCG	0.00404
ACUCAAC	-0.642
UUGAAUC	-0.483
UAGGUUU	0.829

Sequence	RNAcompete 7-mer binding Z-score
AAUACAG	0.0625
GUUCUGU	-0.431
CCACACA	-0.685
AUACCUA	-0.808
CGCCGCA	-0.626
AUACGCA	-0.399
AUUCCGA	-0.815
CAGUUAA	-0.389
GCUGGCU	-0.0187
UUUGGCC	-0.584
UACCCAC	-0.629
AACAGCA	-0.357
GAGGAUG	3.1
CAUGCAA	-0.451
CGACGUA	-0.129
UGGCGUU	0.102
CGUUAUA	-0.529
UGACAGA	0.186
GAGGGCG	2.27
CCAUUCC	-0.893
AUAGCAG	0.358
AGAAGAG	1.64
CUUACCU	-0.815
UGAUGCG	0.55
GUGAUUC	-0.334

Sequence	RNAcompete 7-mer binding Z-score
ACGUCAG	-0.269
CCCUGGA	-0.123
GGCACGA	0.628
GUGUUAA	-0.0447
UCAUCCC	-0.795
AGUUCCC	-0.594
GAUGCGA	0.371
UGCGUGA	0.134
AGUUAAG	0.153
GGCCCGU	-0.532
UCUGGGC	0.0268
CAGACUC	-0.62
UCCAUGG	-0.288
CUUAUGC	-0.831
CGCUGUA	-0.399
ACAAAAA	-0.461
UCCAUCA	-0.753
CUACCUG	-0.945
GUAUUAC	-0.233
UAGCUUG	-0.392
GACGUCA	-0.402
AUACGAA	-0.194
GAAUCCC	-0.578
ACCUCGG	-0.399
ACAGGAC	0.82

Sequence	RNAcompete 7-mer binding Z-score
AAGCCCC	-0.659
CAGCUUC	-0.73
CCCUUGC	-0.694
CCAUGGG	0.67
UGCAGGG	2.57
GGCCAUA	-0.49
AGGUCGU	0.179
CGCGCCC	-0.269
GAGGUGG	3.35
AAGCGAC	0.0268
UCGUCUA	-0.626
UUAAUCC	-0.811
GAGUCGU	0.199
UGAGCAA	0.0918
UCGCGAC	-0.451
UUGGACU	-0.0967
GUACAAG	0.446
AAAUUAA	-0.5
ACAGCCU	-0.883
UCUAAAU	-0.633
UAGUUAU	-0.467
CUGUACC	-0.837
CCGACCU	-0.867
ACUUUUA	-0.714
UAGAGGG	2.77

Sequence	RNAcompete 7-mer binding Z-score
CAGCAAG	-0.0804
UACUAUU	-0.694
CACGAUU	-0.545
AUCGAAU	-0.604
UGCAUAA	-0.457
CAGUGCG	0.0203
UCUCAAU	-0.717
CGGAGGU	2.41
AUACGUG	0.202
GGGGGAU	3.32
CCCGGAC	-0.22
AAGCUGG	0.904
UUACUAG	-0.331
CCACGCA	-0.558
AGGUCAU	-0.214
GAACUGU	-0.24
AGGCGUU	0.00729
GAAGUAA	0.446
UGGAUGA	2.17
GAGAUAG	1.19
GCAUAAU	-0.415
AAGCGUG	0.664
ACUGUUA	-0.565
GGCCGCU	-0.405
CCAGUAG	-0.168

Sequence	RNAcompete 7-mer binding Z-score
CCCUCGC	-0.438
GACCAGU	-0.474
UCAAGUU	-0.565
UUGUCUU	-0.711
AUGUUCC	-0.714
UUGUCGG	0.0755
CUGCCCG	-0.227
UAAUAUA	-0.448
UGUGGGG	3.96
CAAGAGU	-0.0155
GCUGACA	-0.0512
UUGUACU	-0.733
GUACCAU	-0.568
UGGGGGG	4.02
UUGGUAC	0.573
GGGUGCU	2.53
UUUCGCU	-0.818
UUGCGGC	0.0528
AAUUAGU	-0.301
GGAUGGA	4.23
CAUGCGA	-0.171
CCUCCCG	-0.422
UUGGCAG	0.595
GGAUUGU	1.22
CCGUCCC	-0.503

Sequence	RNAcompete 7-mer binding Z-score
UAAUAAU	-0.487
CCAAUGG	0.212
ACACCGU	-0.571
UCGGAUA	0.118
GCUACCA	-0.474
GUGUCGU	0.15
UGGGACC	1.36
CUUGUUU	-0.766
AAUGUCC	-0.743
AAUUAGA	-0.106
CACGAAU	-0.249
AAUUCUG	-0.756
GGUGUAA	1.75
GCCUUUC	-0.984
UAACGCU	-0.681
UUUCGUC	-0.811
UUGGGAU	2
